# Reference: PubChem BioAssay AID651820 (National Center for Advancing Translational Sciences (NCATS), 2012)
# The campaign covered roughly 340,000 compounds. About 12,000 (3.5%) were called active. The inconclusive results got no clear call from the source; some entries with a clear call stand among them for comparison. The call rests on the fitted dose curve; in most records, active means well fitted inhibition curve with a large enough effect; inconclusive means small, poorly fitted or top-dose-only effect, or another doubt; inactive means no such curve, though single readings can be large or run the other way. Potencies of inconclusive entries are left out as doubtful fits.
# Assay: qHTS Assay for Inhibitors of Hepatitis C Virus (HCV)
# Conditions: Huh7.5.1 HCVcc-Cre (HCVcc is cell-culture hepatitis C virus) infection, luciferase reporter, 44 h; activity change, negative = inhibition: at 41.8 µM (top of the series) unless noted
# How it was run: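 Reporter virus HCVcc-Cre (~0.5 moi) infects cells exposed to compound; seeding density 1,000 cells/well with 4 h settling beforehand. Luminescence, 15 sec read, taken 44 h post-infection following a 15 min RT substrate incubation.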
# On the % scale 0 is the no-effect control and ±100 the full control effect; potency means the concentration at half of the fitted maximal effect; tags describe the fitted curve by direction and shape.
Structure (SMILES),"activity change, negative = inhibition",Potency
Cc1ccc(-c2n[nH]c(=S)n2/N=C/c2ccc(C)o2)cc1,inactive: 22%,–
O=C1N(Cc2cccnc2)C[C@@H]2C[C@@H](c3cccc(OCc4ccccc4)c3)N3CCC[C@@]123,–,"inconclusive [inhibitor, single point]"
COc1ccc(C(=O)COC(=O)CCN=C2NS(=O)(=O)c3ccccc32)cc1OC,inactive: -1.65%,–
C=C(Cl)COc1ccc2c(CCCC)cc(=O)oc2c1,–,"inconclusive [inhibitor, single point]"
Clc1ccc(-c2nc3cc(CN4CCCCC4)ccc3o2)cc1,–,"inconclusive [inhibitor, single point]"
CCCCN1C(=O)C(O)=C(C(C)=O)C1c1ccccc1[N+](=O)[O-] (stereo not drawn),inactive: 8.83%,–
N#C/C(=C\c1cccnc1)C(=O)Nc1ccc(C(=O)O)cc1,inactive: 11.8%,–
CCN(CC)c1ccc(C(=O)OCC(=O)NC(C)(C)C)cc1,–,"inconclusive [inhibitor, partial curve]"
COc1ccc(CNCCCSc2ncccn2)cc1OC,inactive: -7.15%,–
COc1ccc(N(Cc2cc3ccccc3[nH]c2=O)S(=O)(=O)c2ccccc2)cc1,–,"inconclusive [inhibitor, single point]"
COC(=O)C1C(O)C(C)C(O)C(C)(O)/C=C\C=C(/C)C(=O)Nc2c(C)c(OC(C)=O)c3c(c2O)C(=O)C(C)=C2OCOC(=C23)/C(C)=C/C(C)(O)C(O)C(C)C1O (stereo not drawn),inactive: -0.757%,–
Cc1ccc(-n2c(O)c(C=NCc3ccccn3)c3ccccc3c2=O)cc1,–,"inconclusive [inhibitor, single point]"
O=C(OCC(=O)N1CCCCCC1)c1ccc[nH]c1=O,inactive: 19.5%,–
CC(NC(=S)NC1CCCCC1)c1ccc(C(C)(C)C)cc1 (stereo not drawn),–,"inconclusive [inhibitor, single point]"
OCCN1CCN(c2nc(-c3ccccc3)c3cc(Cl)ccc3n2)CC1,–,"inconclusive [inhibitor, partial curve]"
C[C@H](N)CN1CCc2ccc(Br)cc21,–,"inconclusive [inhibitor, single point]"
CN(CCC#N)C(=O)c1cc2c(Cl)nc3ccccc3c2s1,–,"inconclusive [inhibitor, single point]"
COc1ccc(CNC(=S)Nc2ccc3nc(N4CCN(C)CC4)cc(C)c3c2)cc1,–,"inconclusive [inhibitor, partial curve]"
Cc1ccc2c(CN3CC(C)CC(C)C3)cc(=O)oc2c1 (stereo not drawn),inactive: 7.13%,–
O=C(NC1CCCCCC1)C1c2ccccc2C(=O)N1Cc1cccs1 (stereo not drawn),inactive: 1.4%,–
FC(F)(F)c1cc(-c2cccs2)nc(N2CCOCC2)n1,–,"inconclusive [inhibitor, partial curve]"
O=S(=O)(Nc1ccc(-c2csc(-c3ccccc3)n2)cc1)c1ccc(F)cc1,–,"inconclusive [inhibitor, single point]"
O=C(CNC(=O)c1sc2ccccc2c1Cl)Nc1ccccc1F,inactive: 9.51%,–
Cn1c(=O)c2[nH]c(CCC3CCCC3)nc2n(C)c1=O,–,"inconclusive [inhibitor, partial curve]"

Structure (SMILES),"activity change, negative = inhibition",Potency
COCc1cc(Sc2cccc(Cl)c2Cl)nc(-c2ccccc2)n1,–,"inconclusive [inhibitor, partial curve]"
O=C(NC(=S)N(Cc1ccccc1)Cc1ccccc1)C1CCCCC1,–,"inconclusive [inhibitor, partial curve]"
Cc1[nH]c(=O)c(C(=O)/C=C/c2ccccc2)c2c1CCCC2,–,active: 14.1 µM
Cc1ccc(N(CC(=O)N2CCOCC2)S(C)(=O)=O)cc1Cl,inactive: 18.5%,–
Cc1ccc(CCNC(=O)CS(=O)Cc2nc(-c3cccs3)oc2C)cc1 (stereo not drawn),inactive: 1.05%,–
CC1(C2CC2)NC(=O)N(CC(=O)Nc2ccccc2C#N)C1=O (stereo not drawn),inactive: -5.03%,–
COc1cccc(CNC(=O)Cc2csc(Nc3nc(=S)[nH]c4ccccc34)n2)c1,–,"inconclusive [inhibitor, partial curve]"
Cn1nnnc1SCC(=O)N1CCN(c2ccc(Cl)cc2)CC1,inactive: -5.88%,–
COc1cccc(N2C(=O)CC(NNC(=O)c3cccs3)C2=O)c1 (stereo not drawn),inactive: -12.1%,–
O=C(Nc1c(C(=O)N2CCOCC2)cnn1-c1ccccc1Cl)c1ccco1,inactive: 17.9%,–
COc1ccccc1NC(=O)N(Cc1ccco1)Cc1cc2cc(C)cc(C)c2[nH]c1=O,–,active: 3.16 µM
COC(=O)C1=C(c2ccc(F)cc2OCc2ccccc2)C[C@@H]2CC[C@H]1N2C(=O)NCc1ccc(C)cc1,–,"inconclusive [inhibitor, single point]"
Oc1cccc(-c2nnc(-c3cccc(O)c3)nn2)c1,–,"inconclusive [inhibitor, single point]"
COc1ccccc1NS(=O)(=O)c1cccc(NC(=O)Nc2ccccc2)c1,–,"inconclusive [inhibitor, single point]"
NCCCN1CCN(c2ccccc2)CC1,–,"inconclusive [inhibitor, partial curve]"
COc1ccccc1Nc1nn2c(=O)c3ccc(C(=O)N4CCC(C)CC4)cc3nc2s1,–,"inconclusive [inhibitor, single point]"
CCOC(=O)C1CCCN(CCc2ccccc2)C1 (stereo not drawn),inactive: 6.23%,–
Cn1c(=O)c2c(nc(-n3ccnc3)n2Cc2ccc(Cl)cc2Cl)n(C)c1=O,–,"inconclusive [inhibitor, single point]"
CCN(C(=O)CSc1nc2ccccc2n1C)C1CCS(=O)(=O)C1 (stereo not drawn),inactive: 15.2%,–
CCOC(=O)c1[nH]c(C)c(C(=O)OCC)c1C,–,"inconclusive [inhibitor, partial curve]"
COc1ccccc1N(C)S(=O)(=O)c1ccc(Cl)c(C(=O)Nc2ccncc2)c1,–,"inconclusive [inhibitor, single point]"
COc1cccc(C#Cc2c(CO)[nH]c3ccccc23)c1,–,"inconclusive [inhibitor, partial curve]"
CCCCCCCSc1cc(OC)c(CCNC)cc1OC,–,"inconclusive [inhibitor, single point]"
CCN(Cc1ccncc1)C(=O)c1cc(COc2ccc(C)c(C)c2)on1,–,"inconclusive [inhibitor, single point]"
